According to the supplement of paper PMC3334620:
Over roughly 33,000 sequences, “E-score (-0.5 to 0.5)” has its median near -0.035; the highest 2% begin near 0.34. Some of the results follow.

target: T1, Mot3 (UniProt P54785); assay: PBM E-score (8-mer binding enrichment) (E-score (-0.5 to 0.5)); higher = stronger / more preferred TF binding; most listed sequences are background and not binding sites; conditions: protein concentration: 200 nM; construct: GST-full length
T1 sequence: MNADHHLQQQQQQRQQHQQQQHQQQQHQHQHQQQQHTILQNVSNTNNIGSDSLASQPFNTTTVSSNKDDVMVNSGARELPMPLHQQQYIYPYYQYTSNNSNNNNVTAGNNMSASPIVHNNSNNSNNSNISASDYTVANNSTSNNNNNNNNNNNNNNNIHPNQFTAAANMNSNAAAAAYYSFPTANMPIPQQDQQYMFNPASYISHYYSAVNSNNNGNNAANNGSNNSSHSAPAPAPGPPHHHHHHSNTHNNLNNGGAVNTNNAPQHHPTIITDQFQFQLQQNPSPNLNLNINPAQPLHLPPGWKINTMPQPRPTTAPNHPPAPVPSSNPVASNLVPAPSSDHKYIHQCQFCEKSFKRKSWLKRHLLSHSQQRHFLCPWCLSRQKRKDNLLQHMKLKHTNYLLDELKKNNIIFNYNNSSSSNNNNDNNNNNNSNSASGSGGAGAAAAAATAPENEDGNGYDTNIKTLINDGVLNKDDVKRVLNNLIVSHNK
How it was run: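 Bound GST-tagged yeast transcription factors, applied at about 100-200 nM to double-stranded universal all-10-mer Agilent arrays, were detected with fluorescent anti-GST. Scans were normalised with masliner. A modified Wilcoxon-Mann-Whitney statistic, the E-score, was assigned to each ungapped eight-base word pooled with its reverse complement by the Universal PBM Analysis Suite.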

Sequence | PBM E-score
ATAGATGC | -0.15
CAGTCGGA | -0.259
AAGTTTTG | 0.167
CGAAACGA | -0.0279
GCGGGCGA | -0.19
CTGAGTGC | -0.0909
CTTGGTTA | 0.0291
CTACTAAA | -0.115
GACCCGTA | -0.0718
ATATCCTA | -0.0436
ACGTGCGG | -0.0607
CTCTTCTA | -0.117
GAATCTCA | -0.136
CTCAGATC | -0.248
GAAGGTAA | 0.397
GGATTTAC | 0.174
CCCCACGG | -0.224
AGCCACTA | -0.272
CGGTCATC | -0.228
AAAATGGG | -0.00493
CACATTAC | 0.277
AGCTCGGC | -0.158
AGCTACTC | -0.11
GCTACATA | 0.102
CCACGACC | -0.285

Sequence | PBM E-score
CACTATAG | -0.0956
GAGAAGGA | -0.0391
ATACGCAC | 0.164
ATCGTCCA | -0.201
GGCGTCGA | -0.117
AGCCTGAT | 0.183
CTCAGACA | 0.0498
AATCATTG | 0.0428
CCGACCTC | -0.289
TGTGGGAA | -0.0508
ACGCCGTC | -0.13
AAGAACTG | -0.196
ACTAATGC | 0.0519
AGCCTCGG | -0.259
ACGCGCGT | 0.289
AAAGGGCT | -0.186
AGATGTCA | -0.0293
ACGTACAC | 0.259
TATTATAA | 0.167
CAGGCTCA | 0.392
GGTGATCA | -0.249
AAGCTCCC | -0.279
GGTTATGA | 0.121
GCCCCGAC | -0.253
CGTACACC | 0.0546

Sequence | PBM E-score
GGCTAAGA | -0.24
AGCGCCGG | -0.217
AACCAGTT | 0.148
ACGGAGTA | -0.118
AGACATTG | -0.113
TACTGAAA | 0.037
ATTCCCTA | -0.0741
AAGCGCCA | -0.129
CCTTTTCA | 0.0956
CACCCGAC | 0.0141
CTGGCGTC | -0.167
ACTTCAAT | 0.183
ATTGTTGC | 0.266
AGTCCAAA | -0.115
CCACAGGA | 0.0479
AAGAGCCC | -0.24
TACACCAA | 0.00253
CCAAAACG | -0.0187
ACAGTTTC | 0.0445
ATGTCGGC | -0.0944
TACCAAGA | -0.00408
CCCCAGCA | -0.158
GCAGTTGA | -0.0889
AACTGCCC | -0.249
TCGCAGAA | -0.204

Sequence | PBM E-score
AGGCCACT | 0.0259
AATAGTCT | -0.0921
GCGCACGA | -0.0702
GGATATCA | -0.0793
GTATGGAC | -0.146
ACGAGATA | 0.0538
GAAAATCC | 0.0103
AAGGACCC | -0.263
AAGACCCT | -0.102
AACAATGC | 0.203
CAGAGGCC | -0.341
CACTGCGG | -0.0924
TCTCCACA | -0.0924
GAGAGGAC | 0.0385
CCTCAGCA | -0.156
CGAACTCG | -0.133
AGGCGATG | -0.111
ACTCGCAG | -0.141
GAACTGTC | 0.0464
TTATAAAA | 0.209
CCGTAATC | -0.0904
CACTTGGC | -0.0541
AACTCCCC | -0.148
TCTACTCA | 0.178
CCTATTCA | 0.0778

Sequence | PBM E-score
CCTTAGAG | -0.308
CCGTCGTA | -0.0137
CTAGGAAG | -0.108
TCCTGTCA | 0.165
AAGTACAT | 0.265
GGAATGAA | -0.0882
TCAGTAGA | -0.119
ACTGCCCC | -0.227
AAGTTCGC | 0.0983
GTCTATTA | -0.123
CTTTAGAC | 0.217
AATTCCCC | -0.133
CGTGGTTC | -0.169
CACCCGTG | 0.0481
GGTGCGAC | -0.251
CAATCTAC | 0.0957
CGTCTAAA | 0.0459
CCGGCATA | -0.298
CTGAGTAC | 0.0463
GCTCGGCA | -0.204
ATAAATAG | 0.059
CTGCAGAC | -0.0439
GCATTATA | 0.143
AGGCCTAG | -0.194
AACCCTAT | 0.0725

Sequence | PBM E-score
AGTTCAAA | -0.0249
CAGAATAA | 0.0126
GCTCAATA | -0.0871
CCAGATAC | -0.291
AGACAAGA | -0.00598
TAACACAA | 0.332
CGGTAGAC | -0.19
AATTGCGA | -0.14
AACGTCCT | -0.0572
AATATCAA | 0.0558
AGCTTGGA | -0.278
ACAGGTCC | -0.0406
TCCTTCGA | 0.0219
ATAAGGTA | 0.092
GAAAGTTC | -0.263
GATCGAAA | -0.0242
AAGAGTTC | -0.188
GAAGATTC | -0.0499
CTTTCGCC | -0.0757
GAACACTC | 0.00214
ACAACGCT | 0.0615
AGTAGGTA | 0.219
CCGCCTAA | -0.175
GCTGCCGA | -0.0685
GTACTCTA | 0.0985

Sequence | PBM E-score
ATTAGGAA | 0.283
AACGTTAA | 0.231
AGCGGACT | -0.22
CGGCTAAC | -0.0778
GATTTCCC | -0.104
GGATCAAC | 0.106
CAATGTAC | 0.184
ATACTAGC | 0.0471
GATGACTA | -0.116
CTCGAGCC | -0.0279
AAGAACGC | 0.0817
ATTGGTTG | -0.0796
CTGTAATA | 0.238
ATAAAAAT | 0.0522
CCCGGGGA | -0.186
AGATCTTC | -0.0165
ATTGCTGA | -0.0702
GATAGAAC | -0.0824
ATCCGGAC | -0.158
CCGGCCAG | -0.0827
CCCCATTA | 0.00735
ATTTACAC | 0.412
